Some of the results follow. These are noisy estimates, calculated here from bound and input reads.
target: T1, Pho4 (S. cerevisiae) (UniProt P07270); test: relative binding free energy (BET-seq); higher = weaker binding; settings: reference: library average
T1 sequence: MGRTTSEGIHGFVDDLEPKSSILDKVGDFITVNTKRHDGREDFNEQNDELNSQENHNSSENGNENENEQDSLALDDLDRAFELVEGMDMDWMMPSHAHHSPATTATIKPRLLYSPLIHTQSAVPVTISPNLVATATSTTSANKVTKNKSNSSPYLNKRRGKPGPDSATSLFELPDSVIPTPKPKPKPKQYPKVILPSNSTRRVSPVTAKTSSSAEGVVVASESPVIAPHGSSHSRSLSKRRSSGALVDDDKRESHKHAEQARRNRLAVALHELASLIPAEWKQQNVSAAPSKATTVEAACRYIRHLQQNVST

Sequence | relative binding free energy [kJ/mol]
TAGAGCACGTGAGTGA | -0.0418
TGTTGCACGTGGGCGA | -0.753
GGTCCCACGTGGTAGG | -0.167
ATTTGCACGTGTAAGC | 0.46
TCGTGCACGTGTGCGG | -0.0418
TCATGCACGTGGGGGT | -1
GTGTGCACGTGAGCGA | 0.335
TGTCTCACGTGGTATT | 0.586
GGTTGCACGTGTACAG | 0
AGGAGCACGTGTGATA | -0.0418
GGGTTCACGTGAGCTG | 1.88
TTCTTCACGTGTGTAA | 1.42
TGTTTCACGTGGTACT | 0.628
TAATCCACGTGTTGGG | 0.0418
TTATTCACGTGCAGGA | 1.09
CTGGGCACGTGGGGGT | -1
AGGTTCACGTGATACG | 1.09
GAGGCCACGTGGGAGT | 0.167
TGCTCCACGTGTGGGT | -0.251
GGTGACACGTGAGTGA | 0.795
GTATACACGTGTGGTC | 0.293
GGCTTCACGTGTGGCT | 0.879
CGGGTCACGTGTATGT | 0.544

Sequence | relative binding free energy [kJ/mol]
TGGGGCACGTGCACGA | -0.46
TTGGCCACGTGGCAGT | -0.544
GTGGCCACGTGAGATG | 1
CTTGGCACGTGTGGCG | 0.251
ATGTTCACGTGAGTTG | 1.63
GGTGCCACGTGTGTGC | -0.669
TAAGGCACGTGATCGT | -0.377
ATTAGCACGTGGTCAT | -0.753
GTGGGCACGTGTGCCG | -0.795
GGATCCACGTGTTGTA | 0.251
TGAATCACGTGCAGGG | 0.753
TGTAACACGTGGAATG | 0.377
GGTGTCACGTGGTCAG | 0
TAATGCACGTGTTCTG | -0.502
ATTTGCACGTGATAGG | 0.418
TCAAGCACGTGGTGTT | -0.962
AAGGGCACGTGCATTG | -0.711
GAATTCACGTGTGGGC | 1.76
TGTAGCACGTGTCGGA | -0.628
TGGGGCACGTGGGGCT | -0.92
GTTGACACGTGAGGGG | 1.13
GGCGTCACGTGATCGG | 0.962
GGGTACACGTGGTATA | 0.251

Sequence | relative binding free energy [kJ/mol]
TGATGCACGTGGGACG | -0.92
ATAGTCACGTGGTACT | 0
CGGTGCACGTGGGTCG | -0.669
TATCTCACGTGTGTGA | 1
AGTGGCACGTGCAGTT | -0.46
GAAGGCACGTGTGTAT | 0.418
AAATGCACGTGTGCGG | -0.251
TGTGTCACGTGGGGTC | -0.377
GGTAGCACGTGTTTTG | 0.293
ATGGTCACGTGGGAGG | 0.251
CTCGGCACGTGTGGTG | -0.377
TGTATCACGTGAGGCT | 1.55
GGGACCACGTGGGGGC | -0.251
GTGTCCACGTGTTTTT | -0.0837
TTTCGCACGTGGTAGA | 0
AAATTCACGTGTCTGG | 1.05
GTGATCACGTGGGATT | 0.502
GGGGCCACGTGAAGTT | 1.09
CGTAACACGTGGTGTT | -0.293
TATGGCACGTGTCCGT | -0.502
CTACACACGTGGGGGT | -0.377
GTAGCCACGTGATTGT | 0.628
TATTGCACGTGGTCCG | -0.502

Sequence | relative binding free energy [kJ/mol]
AAAGACACGTGTGTTA | 0.502
ACGTGCACGTGATGGG | 0
CGGGTCACGTGATGAG | 1
TTGGTCACGTGTTCGA | 0.335
GGGTGCACGTGTTTGG | 0.167
CATTGCACGTGGTTTT | -0.586
TATATCACGTGGGGGC | -0.167
CGATGCACGTGGGTCT | -0.377
CGAGCCACGTGGGGTA | -0.711
CTTAGCACGTGGTGTA | -1
TCTCGCACGTGTATGG | 0.209
TGCGACACGTGTTTTT | 0.837
GTCTGCACGTGTAGAG | 0.795
AGGCGCACGTGGGTAC | -0.209
TTAAACACGTGAAAGT | 1.13
TTAAACACGTGAATGG | 1.34
TATACCACGTGGTGTG | -0.962
TCATTCACGTGTTATG | 1.05
TGGGGCACGTGGCTGT | -0.669
TTGTTCACGTGAGAGG | 2.3
GGGTACACGTGCACGG | 0.46
TTATACACGTGGATGA | 0.167
CATGTCACGTGGAATT | 1.13

Sequence | relative binding free energy [kJ/mol]
AAATTCACGTGATTTG | 1.67
AGTGTCACGTGCTGGG | 0.377
TGAGACACGTGAGGTG | 1.26
GGAGACACGTGACGGG | 0.544
GATTGCACGTGGTTGG | 0.209
GTTTGCACGTGTTTAT | 0.544
GTCGGCACGTGACTGT | 0.795
GTAGGCACGTGGTGTT | -0.126
TATAGCACGTGCGTGA | -0.335
TTGTGCACGTGCGGCC | -0.0418
TGGATCACGTGTGGCA | 0.711
TTGACCACGTGGGTAG | -0.628
TGAAGCACGTGTGATG | 0.293
AAATGCACGTGACGGT | 0.502
TAGCTCACGTGGGAGT | 0.126
AGTGCCACGTGAGGGC | -0.0418
AATTTCACGTGTCGTG | 0.711
AGTGGCACGTGAAGGA | 0.669
GTGGTCACGTGGGCTT | 0.209
TGGTGCACGTGTCATT | -0.753
TGAGTCACGTGGTTAA | 0.251
ATAATCACGTGAAGTG | 1.13
AATAACACGTGGTGGT | 0.0418

— the BET-seq Pho4 binding data (Le et al. 2018)
